# According to the supplement of paper PMC12217912:
# The other results are listed elsewhere or left out. The full chains were built here from the parent and the listed change. Values near 0.05 are background.
# B1: TEV protease; numbered along this chain (parent)
# chain: MGESLFKGPRDYNPISSSICHLTNESDGHTTSLYGIGFGPFIITNKHLFRRNNGTLVVQSLHGVFKVKDTTTLQQHLVDGRDMIIIRMPKDFPPFPQKLKFREPQREERICLVTTNFQTKSMSSMVSDTSCTFPSGDGIFWKHWIQTKDGQCGSPLVSTRDGFIVGIHSASNFTNTNNYFTSVPKNFMELLTNQEAQQWVSGWRLNADSVLWGGHKVFMVKPEEPFQPVKEATQL
# Variants of: B1
# Experiment: raw area under fraction-flipped curve 0-4 h after induction (AUC4h, not background-subtracted), DNA-recorder readout of cleavage of the substrate (dimensionless); higher = more cleavage of the substrate by the protease variant
# Settings: temperature: 34 °C; time window: 0-4 h after rhamnose induction
# 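Note: Bxb1 expression induced with 0.2% (w/v) L-rhamnose at OD600 near 0.5, cultures sampled hourly, flipped fraction per protease–substrate barcode pair counted by paired-end Illumina sequencing.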
Variant,area with substrate ENLYFQD,area with substrate ENLYFQK,area with substrate ENLYFQL,area with substrate ENLYFQN,area with substrate ENLYFQR,area with substrate ENLYFQS,area with substrate ENLYFQT,area with substrate ENLYFQY,area with substrate ENLYFQF,area with substrate ENLYFQI,area with substrate ENLYFQM,area with substrate ENLYFQQ,area with substrate ENLYFQW,area with substrate ENLYFQG,area with substrate ENLYFQV,area with substrate ENLYFQH,area with substrate ENLYFQP
MGESLFKGPRDYNPISSSICHLTNESDGHTTSLYGIGFGPFIITNKHLFRRNNGTLVVQSLHGVFKVKDTTTLQQHLVDGRDMIIIRMPKDFPPFPQKLKFREPQREERICLVTTNFQTKSMSSMVSDTSCTFPSGDGIFWKHWIQTKDGQCGSPLVSTRDGFIVGIHSASNFTNTNNYFTSVPKNFMELLTNQEAQQWVSGWRLNADSVLWGGHKVFMVKPEEPRQPVKEATQL [F226R],0.0707,0.0487,0.0815,0.0767,0.0559,0.103,0.0987,0.0657,–,–,–,–,–,–,–,–,–
MGESLFKGPRDYNPISSSICHLTNESDGHTTSLYGIGFGPFIITNKHLFRRNNGTLVVQSLHGVFKVKDTTTLQQHLVDGRDMIIIRMPKDFPPFPQKLKFREPQREERICLVTTNFQTKSMSSMVSDTSCTFPSGDGIFWKHWIQTKDGQCGSPLVSTRDGFIVGIHSASNFTNTNHYFTSVPKNFMELLTNQEAQQWVSGWRLNADSVLWGGHKVFMVKPEEPFQPVKEATQL [N178H],0.0802,–,–,0.0839,–,0.118,–,–,0.0727,0.0471,0.0946,0.064,0.0515,–,–,–,–
MGESLFKGPRDYNPISSSICHLTNESDGHTTSLYGIGFGPFIITNKHLFRRNNGTLVVQSLHGVFKVKDTTTLQQHLVDGRDMIIIRMPKDFPPFPQKLKFREPQREERICLVTTNFQTKSMSSMVSDTSCTFPSGDGIFWKHWIQTKDGQCGSPLVSTRDGFIVGIHSASNFTNTNNYFTSVPKNFMELLTNQEAQQWVSGWRLNADSVLWGGHKVFMVKPEGPFQPVKEATQL [E224G],0.0773,–,0.0501,–,–,0.101,–,0.0637,–,0.0575,0.0923,–,–,0.0844,0.0531,–,–
MGESLFKGPRDYNPISSSICHLTNESDGHTTSLYGIGFGPFIITNKHLFIRNNGTLVVQSLHGVFKVKDTTTLQQHLVDGRDMIIIRMPKDFPPFPQKLKFREPQREERICLVTTNFQTKSMSSMVSDTSCTFPSGDGIFWKHWIQTKDGQCGSPLVSTRDGFIVGIHSASNFTNTNNYFTSVPKNFMELLTNQEAQQWVSGWRLNADSVLWGGHKVFMVKPEEPFQPVKEATQL [R50I],0.0529,–,0.0886,0.0904,0.0739,0.135,0.0663,–,–,0.0597,–,–,0.0567,–,–,–,–
MGESLFKGPRDYNPISSSICHLTNESDGHTTSLYGIGFGPFIITNKHLFRRNNGTLVVQSLHGVFKVKDTTTLQQHLVDGRDMIIIRMPKDFPPFPQKLKFREPQREERICLVTTNFQTKSMSSMVSDTSCTFPSGDGIFWKHWIQTKDGQCGSPLVSTRDGFIVGIHSASNFTNTNNYFTSVPKNFMELLTNQEAQQWVSGWRLNADSVLWGGHKVFMVKPEEPFQPVKFATQL [E231F],0.0716,0.0591,0.019,0.0658,–,0.0869,0.0589,–,–,–,0.0824,–,–,0.0865,0.0566,0.0763,0.067
MGESLFKGPRDYNPISSSICHLTNESDGHTTSLYGIGFGPFIITNKHLFRRNNGTLVVQSLHGVFKVKDTTTLQQHLVDGRDMIIIRMPKDFPPFPQKLKFREPQREERICLVTTNFQTKSMSSMVSDTSCTFPSGDGIFWKHWLQTKDGQCGSPLVSTRDGFIVGIHSASNFTNTNNYFTSVPKNFMELLTNQEAQQWVSGWRLNADSVLWGGHKVFMVKPEEPFQPVKEATQL [I145L],0.0664,–,–,0.0745,–,0.097,0.0815,–,0.0779,–,–,–,–,0.0858,0.0629,0.0557,–
MGESLFKGPRDYNPISSSICHLTNESDGHTTSLYGIGFGPFIITNKHLFRRNNGTLVVQSLHGVFKVKDTGTLQQHLVDGRDMIIIRMPKDFPPFPQKLKFREPQREERICLVTTNFQTKSMSSMVSDTSCTFPSGDGIFWKHWIQTKDGQCGSPLVSTRDGFIVGIHSASNFTNTNNYFTSVPKNFMELLTNQEAQQWVSGWRLNADSVLWGGHKVFMVKPEEPFQPVKEATQL [T71G],0.063,0.0677,–,0.0797,0.0716,0.0801,0.0708,0.0694,–,0.0657,0.0649,0.0601,0.0571,0.0482,0.0727,0.06,0.0288
MGESLFKGPRDYNPISSSICHLTNEYDGHTTSLYGIGFGPFIITNKHLFRRNNGTLVVQSLHGVFKVKDTTTLQQHLVDGRDMIIIRMPKDFPPFPQKLKFREPQREERICLVTTNFQTKSMSSMVSDTSCTFPSGDGIFWKHWIQTKDGQCGSPLVSTRDGFIVGIHSASNFTNTNNYFTSVPKNFMELLTNQEAQQWVSGWRLNADSVLWGGHKVFMVKPEEPFQPVKEATQL [S26Y],0.0582,0.0734,–,0.0697,–,0.0751,0.0726,–,–,0.0461,0.0692,–,0.0717,0.0769,0.0469,0.0518,–
MGESLFKGPRDYNPISSSICHLTNESDGHTTSLYGIGFGPFIITNKHLFRRNNGTLVVQSLHGVFKNKDTTTLQQHLVDGRDMIIIRMPKDFPPFPQKLKFREPQREERICLVTTNFQTKSMSSMVSDTSCTFPSGDGIFWKHWIQTKDGQCGSPLVSTRDGFIVGIHSASNFTNTNNYFTSVPKNFMELLTNQEAQQWVSGWRLNADSVLWGGHKVFMVKPEEPFQPVKEATQL [V67N],0.057,0.0489,–,0.0624,0.0646,0.0729,0.0495,–,0.0885,0.0536,–,–,–,–,–,0.0503,0.0439
MGESLFKGPRDYNPISSSICHLTNESDGHTTSLYGIGFGPFIITNKHLFRRNNGTLVVQSLHGVFKVKDTTTLQQHLVDGRDMIIIRMPKDFPPFPQKLKFREPQREERICLVTTNFQTKSMSSMVSDTSCTFPSGDGIFWKHWIQTKDGQCGSPLVSTRDGFIVGIHSASNFQNTNNYFTSVPKNFMELLTNQEAQQWVSGWRLNADSVLWGGHKVFMVKPEEPFQPVKEATQL [T174Q],0.0698,0.0748,0.0589,0.0654,0.0621,0.0912,–,–,–,–,0.102,–,–,0.102,0.0421,0.0752,–
